In the supplement of paper PMC11417369:
± gives the standard deviation of the averaged measurements. Some of the results follow.

system: PfAP2-EXP AP2 domain (GST-tagged); assay: gcPBM binding intensity (ln(normalized median fluorescence intensity)); higher = stronger DNA binding
Outline: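 After 1 h on an Agilent 4 × 180k array of primer-extended double-stranded 36-bp intergenic genomic probes and negative controls, bound GST-tagged P. falciparum DNA-binding domains were detected with Alexa488 anti-GST antibody and scanned at 488 nm. The domains had been expressed in E. coli, and binding took place in 1× PBS with 1% milk, 0.2 mg/ml BSA, 0.5% salmon testes DNA and 0.03% Triton X-100. Binding intensity is the highest Masliner-normalised natural-log median intensity across replicate spots of either probe orientation.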

Point of comparison: “TATATATTTGTTCACACACACACAAAAAAAAAAAAA [CACACA_site2475]”, “gcPBM binding intensity (ln)” value 8.46 ± 0.7. Against it:
- TTCTTTTCTTTTTTCTTTTTTTTTTTCTTTTCTTTT [GTGCAC_negctrl_site630] — within error, 8.59 ± 0.61
- AGAAAAGGACATATATGTACTTATCAATATAGAAAC [XGTACX_site1042] — within error, 8.8 ± 0.4
- AAAAAAAAAAAAAAAACATGCAAAATAATATATATA [TGCATGCA_site68] — within error, 9.03 ± 0.26
- TCACATATGTTCCATTGTACTTGTAGTAATTTTTTC [XGTACX_site6473] — within error, 8.73 ± 0.46
- GTAATATGTATCCATACACACATACATTTTATTTGC [CACACA_site4640] — within error, 8.69 ± 0.33
- ATAAAATGAAATATATGTACGCATCACTTGTTGAAC [XGTACX_site4530] — within error, 8.72 ± 0.27
- CATATTTGGAAACACACACACATATTTATATATATA [CACACA_site3569] — within error, 8.99 ± 0.014
- TATATTTTACTCTTCACACATATACTCAATTTATAT [CACACA_site5357] — within error, 8.94 ± 0.31
- AAAAGAAAAAGAAAAACACACATAAATATAAATATA [CACACA_site1879] — within error, 8.57 ± 0.55
- AAAATTTTCTTTTTATGTACACATAATTTTACCGGA [XGTACX_site5276] — within error, 8.7 ± 0.43
- AAAACAATAATATACTGTACATATATATAATAACAT [XGTACX_site6188] — within error, 8.82 ± 0.49
- AATTTTTCATCAAGTTGTACAATTATTTGTTTGTTT [XGTACX_site3113] — within error, 8.74 ± 0.57
- CATACACATACACATACACACGCATAGAAACATACG [CACACA_site8666] — within error, 8.79 ± 0.33
- AAATTCAGGTTATATTTTAATTTTTTTTTGTTTTTT [CACACA_negctrl_site924] — within error, 8.25 ± 0.35
- CAATATTTTTTATAGGGTACAAAAGATAAAAAAAAA [XGTACX_site6298] — within error, 8.93 ± 0.43
- TAAATATTATAAATGATACACACTTAAAATACTCAC [CACACA_site2710] — within error, 8.4 ± 0.29
- AACATAAGTAAGAATACATGCGGAAATTATATAGAA [TGCATGCA_site112] — within error, 9.2 ± 0.52
- TATAAATTTAAAATGACACACACTAAAGTTATTTAA [CACACA_site6700] — within error, 8.23 ± 0.4
- TCCCTTAAAATGATATGTACATAAAAATAAAAAAAA [XGTACX_site836] — within error, 8.65 ± 0.13
- TAAGGACTAATATTTGAACACACATATAATATATAC [CACACA_site9325] — within error, 8.59 ± 0.45
- GTCATCAAGTATTAAGTGCATTAAAAATAAAATATA — within error, 8.66 ± 0.28
- CATATATATATATATATATATATATTTATTTATTTA [TGCATGCA_negctrl_site165] — within error, 8.7 ± 0.014
- TTAAAAGAAAATAACACACACAAAAAAAAAAAAAAA [CACACA_site2117] — within error, 8.01 ± 0.42
- AAAATACACAACATATATATATATATATATATATAT [XGTACX_negctrl_site21] — higher, 10.1 ± 0.36
- TTTTGTTTTAAAAGTACACACTTTTAATTAGATTTC [CACACA_site4788] — within error, 8.35 ± 0.26
- TGATCAATGGATTTAACACACAAAAAAAAAAAAAAA [CACACA_site3845] — within error, 8.09 ± 0.47
- TTTTTTTTTTTTTTTGCATGCAGGTTTTTACCCCTT [TGCATGCA_site381] — higher, 9.53 ± 0.14
- TTATTTTCAAAATGTTGTACACACAAAAAAAAAAAA [XGTACX_site3151] — within error, 8.69 ± 0.52
- ATTTATTTTTTACATTGTACATATTTATTCCTTTTA [XGTACX_site8028] — within error, 8.8 ± 0.45
- TATAACATTTTTTTCAAAATAGCTTTAGAAATAAAG [CACACA_negctrl_site718] — within error, 7.99 ± 0.38
- TATGTATATATATAAAGTACGCAAATTTATAATAAG [XGTACX_site8744] — within error, 8.78 ± 0.33
- ATATGTGGAAATAGAGCACACATATATATAATATAT [CACACA_site8194] — within error, 8.47 ± 0.79
- TTTTTTTTCTTCAAGCGTACTTATTTGTAGAAAAAA [XGTACX_site1728] — within error, 8.64 ± 0.23
- ACTAACATATATTCAACACACATATACCTTCAACCC [CACACA_site3011] — within error, 8.77 ± 0.62
- CCCATTTAATATTGAGTGCATTTAAATAAATGTATT — within error, 8.69 ± 0.11
- TTTTACAAAGTATGATGTACAAGTATATATAAATAT [XGTACX_site2072] — within error, 8.41 ± 0.36
- TATATATATATATACACACACACATATATATATATA [CACACA_site774] — higher, 10.1 ± 0.24
- TGAAAAGGAAAATTTTGTACATATACATCAAGGATA [XGTACX_site656] — within error, 8.81 ± 0.8
- TACATGAATAAACTTACACACACCCATGCATACATA [CACACA_site97] — within error, 8.71 ± 0.44
- ACTTTTTATTTTTTACTATATATATATATATATATG [TGCATGCA_negctrl_site463] — within error, 8.96 ± 0.4
- AAAAAAAAGAATTTACGTACTTATTATTTATATTTT [XGTACX_site5701] — within error, 8.26 ± 0.34
- TATATATATTCTTTAAAACACACGTAAAGAAGAATT [CACACA_site2718] — within error, 8.81 ± 0.55
- AAAAAAAAAAGAAACACACACATATATATATATAAT [CACACA_site5052] — within error, 8.61 ± 0.52
